The name of at least one read-out is uncertain. At least one structure is not confirmed: it was looked up by name or label, or the drawing left a doubt.
System: 17α-Ethinylestradiol (E2-17α) induced cholestasis in rats
Assay: Bile discharge in 17α-ethinylestradiol (E2-17α) induced cholestasis in rats
Format: in vivo, Sprague Dawley rats
Conditions: E2-17α cholestasis rats; for Bile discharge amount at 30 min / Bile discharge amount at 45 min / Bile discharge amount at 60 min / Bile discharge amount at 75 min / Bile discharge amount at 90 min / Bile discharge amount at 105 min / Bile discharge amount at 120 min / Bile discharge amount at 15 min: i.g., test compounds 5-5.9 mg/kg, UDCA 15 mg/kg, OCA 10 mg/kg, x ± s; for Bile discharge amount at 15 min: bile collected 15 min
Protocol: Preparation of 1.0% CMC-Na solution: 1 p CMC-Na powder was weighed and added to 100 mL (50° C.) of distilled water, the mixture was rapidly stirred with a stirrer for 1 hour to fully swell, thereby to obtain a 1% CMC-Na solution.
Preparation of E2-17α solution in propylene glycol: 54/0.98=56 mp of E2-17α was weighed, dissolved in […] of propane-1,2-diol, shaked by a vortexer for 1 hour, thereby to obtain a 7 mp/mL suspension of E2-17α.
17α-Ethinylestradiol (E2-17α) was administered by subcutaneous injection into the neck for model establishment for 7 days. Meantime, the test compounds were suspended in a 1% CMC-Na solution and administered by intragastric administration for 7 days during the E2-17α modeling.
E2-17α in propylene glycol was administered to rats for 7 days to establish the model, and different test samples in CMC-Na solution were administered by intragastric administration. On the 8th day, 1 mL of rat fasting blood sample was collected for detection of serum biochemical indicators, and E2-17α in propylene glycol was continuously administered to establish the model, and different test samples CMC-Na solution were administered by intragastric administration. After 0.5 hours of administration on the 9th day, the rats were weighed and anesthetized with 10% urethane (10 mL/kg) via intraperitoneal injection. After anesthesia, the rat was fixed on a board. A midline abdominal incision was made from the upper acetabular area, and the incision was about 2 to 3 cm. The indoor temperature should be maintained during the experiment, the body temperature of the rats was maintained and bile outflow was promoted. Handle of ophthalmic forceps was used to turn the liver up and find the duodenum and stomach junction. A suture (size 0) was placed at the junction to reserve. On the duodenum, about 2 cm away from the pylorus, a thin tube with a yellow transparent tube perpendicular to the duodenum could be found passing through the pancreas, that is, the common bile duct. At the junction of the common bile duct and the duodenum, the common bile duct was separated by an ophthalmic curved forceps, but was careful not to break the small blood vessels around the bile duct and avoided stimulating the pancreatic tissue by hand. After the separation, two sutures were place, and the suture close to the intestine end was ligated, as a traction suture, ophthalmic scissors were used to obliquely cut a small opening in the wall of the tube, a prepared pancreatic juice collection tube was inserted into the small opening. A mixture of yellow bile and pancreatic juice flowed out immediately after the insertion. The tube was ligated and fixed, and this tube was used to collect bile. After completion of the intubation, the skin was sutured. The other end of the bile duct intubation was taken out, flowing out to a fixed 0.5 mL centrifuge tube. Bile was continuously collected 8 times once every 15 minutes, until 120 minutes.
After completion of the intubation, the skin was sutured to prevent water evaporation of the abdominal cavity. The other end of the bile duct intubation was taken out, and the bile flowed out to a fixed 0.5 mL collection tube. Bile was continuously collected 8 times once every 15 minutes for a total of 120 minutes. Before the experiment, the collection tube was accurately weighed using an analytical balance. After the bile was collected in the experiment, the total weight of the bile and the collection tube was weighed, and the weight of the bile in the tube was calculated by subtraction and converted to a volume based on 1 g/mL.
The data were analyzed using SPSS18.0 statistics software. Measurement data were compared between the two groups using the t test. Multiple groups of means were compared using one-way analysis of variance (ANOVA) and multiple comparisons between groups. Data mean±standard error (Mean±SEM.) or mean±standard deviation (Mean±SD.).

| Structure (SMILES) | Bile discharge amount at 30 min [mg/kg/min] | Bile discharge amount at 45 min [mg/kg/min] | Bile discharge amount at 60 min [mg/kg/min] | Bile discharge amount at 75 min [mg/kg/min] | Bile discharge amount at 90 min [mg/kg/min] | Bile discharge amount at 105 min [mg/kg/min] | Bile discharge amount at 120 min [mg/kg/min] | Bile discharge amount at 15 min [mg/kg/min] | Bile flow rate compared with the E2-17α group (P<0.05 vs E2-17α) | Effect on ameliorating intrahepatic cholestasis, promoting bile excretion (conclusion) |
| --- | --- | --- | --- | --- | --- | --- | --- | --- | --- | --- |
| CC[C@@H]1C2C[C@H](O)CC[C@]2(C)C2CC[C@@]3(C)C(CC[C@@H]3[C@H](C)CCOP3(=O)OCC[C@@H](c4ccnc(Cl)c4)O3)C2[C@@H]1O (some centres unmarked) [Compound 1-Cl] | 54.80 | 48.17 | 46.64 | 45.83 | 45.65 | 43.37 | 44.21 | 57.80 |  |  |
| CC[C@@H]1C2C[C@H](O)CC[C@]2(C)C2CC[C@@]3(C)C(CC[C@@H]3[C@H](C)CCO[P@@]3(=O)OCC[C@@H](c4ccncc4)O3)C2[C@@H]1O (some centres unmarked) [Compound 1-H] | 58.68 | 55.89 | 52.06 | 51.47 | 48.30 | 45.36 | 44.73 | 62.24 |  |  |
| CC(C)[C@@H]1C2C[C@H](O)CC[C@]2(C)C2CC[C@@]3(C)C(CC[C@@H]3[C@H](C)CCOP3(=O)OCC[C@@H](c4ccncc4)O3)C2[C@@H]1O (some centres unmarked) [Compound 1-IP] | 51.73 | 50.34 | 47.63 | 44.27 | 43.56 | 43.72 | 42.36 | 53.48 |  |  |
| CC[C@@H]1C2C[C@H](O)CC[C@]2(C)C2CC[C@@]3(C)C(CC[C@@H]3[C@H](C)CCOP3(=O)OC(C)C[C@@H](c4ccncc4)O3)C2[C@@H]1O (some centres unmarked) [Compound 1-Me1] | 48.85 | 46.34 | 45.74 | 42.73 | 42.12 | 41.53 | 40.25 | 54.43 |  |  |
| CC[C@@H]1C2C[C@H](O)CC[C@]2(C)C2CC[C@@]3(C)C(CC[C@@H]3[C@H](C)CCO[P@](=O)(N[C@@H](C)C(=O)COC(C)C)Oc3ccccc3)C2[C@@H]1O (some centres unmarked) [Compound 2-0] | 53.29 | 47.13 | 46.64 | 45.06 | 43.01 | 43.26 | 41.38 | 52.89 |  |  |
| CC[C@@H]1C2C[C@H](O)CC[C@]2(C)C2CC[C@@]3(C)C(CC[C@@H]3[C@H](C)CCO[P@](=O)(N[C@@H](C)C(=O)COC(C)C)Oc3cccc(Cl)c3)C2[C@@H]1O (some centres unmarked) [Compound 6-0] | 52.04 | 48.31 | 45.96 | 44.06 | 43.11 | 42.34 | 40.21 | 51.32 | significantly increased | significant effect |

Reference: US11028111B2, “Compound for treating metabolic diseases and preparation method and use thereof” (Xi' An Biocare Pharma Ltd., priority 2017, dated 2021)
